Measurements taken from PubChem BioAssay AID485294 (National Center for Advancing Translational Sciences (NCATS), 2010).
Screen size: about 370,000 compounds; about 150 (0.041%) were called active. The shares of active, inactive and inconclusive entries below differ from those in the screen. Calls come from the whole dose curve; as a rule, active = well fitted inhibition curve with a large enough effect; inconclusive = small, poorly fitted or top-dose-only effect; inactive = flat fitted curve, though single readings scatter. Potencies of inconclusive entries are left out as doubtful fits.

Target: Beta-lactamase (Escherichia coli (strain K12)) (UniProt P00811)
Test: qHTS Inhibitors of AmpC Beta-Lactamase (assay with detergent); note: nearly all actives have a fitted effect of over 25% in size
Details: AmpC hydrolysis of nitrocefin, absorbance 480 nm, 0.01% Triton; series mostly up to 114 µM
Summary of the method: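 20 mM phosphate pH 7.0 + 0.01% (detergent screen) or 0.0001% Triton X-100; 5.3 nM AmpC reagent; cpd preinc 15 min RT; nitrocefin (800 uM stock) to start; A480 q20 s × 4 min; Activity was normalised to no-enzyme and no-compound control wells.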
Potency is the fitted concentration of half-maximal effect; tags give direction and shape of the fitted curve.

UniProt P00811, sequence (P00811 whole entry, looked up): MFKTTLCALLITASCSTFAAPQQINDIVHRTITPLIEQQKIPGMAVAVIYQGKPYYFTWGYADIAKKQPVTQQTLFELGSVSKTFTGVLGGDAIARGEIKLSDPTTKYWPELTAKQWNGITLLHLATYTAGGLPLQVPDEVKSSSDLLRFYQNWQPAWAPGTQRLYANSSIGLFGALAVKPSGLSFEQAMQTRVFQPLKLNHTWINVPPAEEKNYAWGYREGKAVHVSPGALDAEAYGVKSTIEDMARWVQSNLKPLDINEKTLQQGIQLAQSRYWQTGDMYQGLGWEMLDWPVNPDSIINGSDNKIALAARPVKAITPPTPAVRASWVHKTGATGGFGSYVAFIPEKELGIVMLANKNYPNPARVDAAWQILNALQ

| SMILES | Potency |
| --- | --- |
| Nn1c(SCC(=O)Nc2cccc(F)c2)nnc1C1CCCCC1 | inconclusive [inhibitor, partial curve] |
| COc1ccc(C(=O)n2ncc(C#N)c2N)cc1 | inconclusive [inhibitor, partial curve] |
| CC(=O)c1ccc(NC2=NCCCS2)cc1 | inactive |
| N#Cc1ccc(OCC(=O)N/N=C/C2CC=CCC2)cc1 (stereo not drawn) | inconclusive [inhibitor, full curve, poor fit] |
| COC(=O)C1C(c2ccccc2)C(C(=O)N2CCN(C)CC2)C1c1ccccc1 (stereo not drawn) | inconclusive [inhibitor, full curve, poor fit] |
| COc1ccc(NC(=O)CCn2c(=S)[nH]c3ccccc3c2=O)cc1 | inactive |
| CCOC(=O)CSc1nc2sc3c(c2c(=O)n1-c1ccccc1)CCN(C(C)C)C3 | inactive |
| Cc1nc(C)c(C(=O)NNC(=O)c2ccc(Br)cc2)s1 | inconclusive [inhibitor, full curve, poor fit] |
| O=C(NC1CCCCCC1)c1cccc(N2CCCC2=O)c1 | inactive |
| CCOC(=O)c1c(C)[nH]c(C)c1S(=O)(=O)N(C)CC(=O)N1CCN(c2cccc(Cl)c2)CC1 | inactive |
| CC(C)c1ccc(NC2CCCN(C(=O)c3cscn3)C2)cc1 (stereo not drawn) | inactive |
| Cc1nn(C)c(C)c1S(=O)(=O)N(CC(=O)NCCN1CCOCC1)c1ccc(C(C)C)cc1 | inconclusive [inhibitor, full curve] |
| CCOc1ccc(OC(=O)NC(c2ccccc2)C(Cl)(Cl)Cl)cc1 (stereo not drawn) | inconclusive [inhibitor, full curve, poor fit] |
| CCN(CC)CCN=Cc1c(O)n(CCc2ccccc2)c(=O)[nH]c1=O | inactive |
| CC(C)n1c(NCCc2ccccc2)nc2c1c(=O)n(C)c(=O)n2C | inconclusive [inhibitor, full curve] |
| CC(=O)Nc1cccc(C(=O)/C=C/c2ccco2)c1 | inactive |
| COc1ccc(O[C@@H]2O[C@H](COC(C)=O)[C@@H](OC(C)=O)[C@H](OC(C)=O)[C@H]2NC(C)=O)cc1 | inconclusive [inhibitor, partial curve] |
| Cc1ccc(C2CCN(C(=S)NC3CCCCC3)C2)cc1 (stereo not drawn) | inactive |
| O=C(Nc1ccc2c3c(cccc13)CC2)c1ccco1 | inconclusive [inhibitor, full curve] |
| Cc1cc(C)n(-c2nc(SCCN(C)C)c3c4c(sc3n2)COC(C)(C)C4)n1 | inactive |
| CCCCn1c(N)c(N(CCC(C)C)C(=O)COC(=O)c2cccnc2OCC)c(=O)[nH]c1=O | inconclusive [inhibitor, partial curve] |
| O=C(NCc1ccco1)C(c1ccc(F)cc1)N(Cc1cccnc1)C(=O)Cn1nnc2ccccc21 (stereo not drawn) | inconclusive [inhibitor, full curve, poor fit] |
| COc1ccc(C(=O)CSC2=NS(=O)(=O)c3cc(Cl)ccc3N2)cc1 | inconclusive [inhibitor, full curve, poor fit] |

| SMILES | Potency |
| --- | --- |
| Cc1cc(S(=O)(=O)N2CCCC2)ccc1OCC(=O)NCc1ccco1 | inactive |
| Cc1ccc(CNC(=O)c2cccc(Nc3nc4ccccc4n4nnnc34)c2)cc1 | inactive |
| Nc1ccccc1N=Cc1c(O)n(CCC2=CCCCC2)c(=O)[nH]c1=O | inactive |
| O=C(NCc1ccc(Cl)cc1)C1CCN(C(=O)c2ccc(Cl)cc2)CC1 | inconclusive [inhibitor, full curve, poor fit] |
| COc1cc(/C=N\NC(=O)c2ccc(C)nc2)ccc1OC(=O)c1cccc(F)c1 | inconclusive [inhibitor, partial curve, poor fit] |
| COc1ccccc1CNC(=O)C1CCCN(S(=O)(=O)c2cnc[nH]2)C1 (stereo not drawn) | inconclusive [inhibitor, full curve] |
| Cn1nc(C(=O)NCc2ccccc2)c2ccccc2c1=O | inconclusive [inhibitor, single point] |
| CCN(CC)S(=O)(=O)c1ccc(C(=O)Nc2nnc(COC)o2)cc1 | inconclusive [inhibitor, partial curve] |
| O=C1c2ccccc2C(=O)C1(CO)c1ccc(OC(F)F)cc1 | inactive |
| COc1cccc(/C=N/NC(=O)C(=O)N2CCCC2)c1OC | inconclusive [inhibitor, single point] |
| Cc1cccc(OCC(=O)Nc2ccc(N3CCCC3)cc2)c1C | inactive |
| CCOc1ccc(C(=O)C[n+]2ccc(C(=O)NCCO)cc2)cc1 | inconclusive [inhibitor, single point] |
| Cc1ccccc1SCC(=O)Nc1cc(C(F)(F)F)ccc1N1CCOCC1 | inconclusive [inhibitor, partial curve] |
| CCOc1ccc(-c2nnn(CC(=O)N3CCN(c4ccc(OC)cc4)CC3)n2)cc1OCC | inconclusive [inhibitor, full curve, poor fit] |
| COCC(N)(c1ccccc1)c1nc2ccccc2n1C (stereo not drawn) | inconclusive [inhibitor, full curve, poor fit] |
| CN1CCN(S(=O)(=O)c2ccc(Cl)nc2)CC1 | inconclusive [inhibitor, partial curve, poor fit] |
| COc1cccc(-c2csc3nnc(SCC(=O)c4ccc(NC(C)=O)cc4)n23)c1 | inconclusive [inhibitor, single point] |
| Cc1ccc(NC(=O)CCn2nc([N+](=O)[O-])cc2C)nc1 | inconclusive [inhibitor, partial curve, poor fit] |
| COc1cc(-c2ccno2)ccc1S(=O)(=O)N1CCN(c2ccc(F)cc2)CC1 | inactive |
| CCCCN=C(C)c1c(O)c2ccccc2oc1=O | inconclusive [inhibitor, partial curve, poor fit] |
| Cc1ccc(CC(=O)Nc2ccc(C(=O)N3CCOCC3)cc2)cc1 | inactive |
| CC(C)NC(=O)Nc1cccs1 | inconclusive [inhibitor, partial curve, poor fit] |
| CCN1CCN(c2ccc(S(=O)(=O)N3CCOCC3)cc2NC(=O)CCC(C)C)CC1 | inactive |

| SMILES | Potency |
| --- | --- |
| CC(C)=CC(=O)Nc1nnc(-c2cccnc2)s1 | inconclusive [inhibitor, full curve, poor fit] |
| O=C(COC(=O)CNC(=O)c1ccc(Cl)cc1Cl)NC1CCCCCCC1 | inconclusive [inhibitor, full curve, poor fit] |
| O=C(/C=C/c1ccnc2ccccc12)c1cccs1 | inactive |
| O=C(N[C@@H](Cc1ccccc1)C(=O)O)c1cccnc1 | inconclusive [inhibitor, full curve, poor fit] |
| COc1ccc(S(=O)(=O)N(CC(=O)NCc2ccco2)C2CCCCC2)cc1OC | inconclusive [inhibitor, full curve, poor fit] |
| C[C@H](NC(=O)c1ccc(Cl)c(S(=O)(=O)N2CCOCC2)c1)c1nc2ccccc2[nH]1 | inconclusive [inhibitor, single point] |
| Cn1c(=O)cc(N)n(Cc2ccccc2)c1=O | inconclusive [inhibitor, full curve, poor fit] |
| C/C(Cn1nnc([N+](=O)[O-])n1)=N\NC(=O)c1ccc(C)cc1 | inconclusive [inhibitor, partial curve] |
| O=C1C2CCCN2C(=O)N1CCCN1CCN(c2cccc(Cl)c2)CC1 (stereo not drawn) | inconclusive [inhibitor, partial curve, poor fit] |
| Cc1ccc2cc3c(N)c(C(=O)N4CCOCC4)sc3nc2c1 | inconclusive [inhibitor, partial curve, poor fit] |
| Cc1cc(N2CCN(c3nnnn3-c3ccccc3)CC2)n2ncnc2n1 | inconclusive [inhibitor, partial curve, poor fit] |
| Cn1c(NCC(O)CO)nc2c1c(=O)n(Cc1ccc(Cl)c(Cl)c1)c(=O)n2C (stereo not drawn) | inconclusive [inhibitor, partial curve] |
| O=C(CCN1CCOCC1)NCc1ccccc1 | inconclusive [inhibitor, partial curve] |
| O=C(CCN1C(=O)/C(=C/c2cccc(Br)c2)SC1=S)Nc1cccnc1 | inconclusive [inhibitor, full curve, poor fit] |
| N#Cc1cc(F)c(N2CCNCC2)cc1Cl | inconclusive [inhibitor, full curve, poor fit] |
| O=c1[nH]c(=S)n(-c2ccccc2Cl)c(O)c1C=NCCN1CCNCC1 | inconclusive [inhibitor, partial curve] |
| Cc1noc(C)c1COc1ccc(C(=O)OCc2nnc(-c3ccc(Cl)cc3)o2)cc1 | inconclusive [inhibitor, full curve] |
| Cc1ccc(C(=O)CSc2nc(-c3ccccc3)ccc2C#N)cc1 | inactive |
| Cc1ccc(S(=O)(=O)N2CCN(C(=O)N3CCOCC3)CC2)cc1C | inconclusive [inhibitor, full curve, poor fit] |
| CC(NC(=O)COc1ccc(Oc2ccccc2)cc1)C(=O)O (stereo not drawn) | inconclusive [inhibitor, full curve, poor fit] |
| COc1ccc(CCNc2nc(C)nc3c2nnn3Cc2ccccc2)cc1 | inconclusive [inhibitor, full curve, poor fit] |
| CC(Sc1ccc(S(=O)(=O)N2CCN(C)CC2)cn1)C(=O)NC1(C#N)CCCCC1 (stereo not drawn) | inconclusive [inhibitor, full curve] |
